Laboratory results: the supplement of paper PMC12217912
The list shows a part of the results. The full chains were built here from the parent and the listed change. Inactive controls read about 0.05.

B1: TEV protease; numbered along this chain (parent)
chain: MGESLFKGPRDYNPISSSICHLTNESDGHTTSLYGIGFGPFIITNKHLFRRNNGTLVVQSLHGVFKVKDTTTLQQHLVDGRDMIIIRMPKDFPPFPQKLKFREPQREERICLVTTNFQTKSMSSMVSDTSCTFPSGDGIFWKHWIQTKDGQCGSPLVSTRDGFIVGIHSASNFTNTNNYFTSVPKNFMELLTNQEAQQWVSGWRLNADSVLWGGHKVFMVKPEEPFQPVKEATQL

Variants of: B1
Assay: raw area under fraction-flipped curve 0-4 h after induction (AUC4h, not background-subtracted), DNA-recorder readout of cleavage of the substrate (dimensionless); higher = more cleavage of the substrate by the protease variant
Conditions: temperature: 34 °C; time window: 0-4 h after rhamnose induction
Method: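 In vivo DNA recorder in E. coli TOP10(DE3) ΔrhaA at 34 °C. Each TEVp single-site mutant (parent TEVp 0) is paired with a single-site variant of the 7-mer TEVs (canonical ENLYFQ|S). The substrate sits between flexible linkers in a Bxb1-sfGFP-TEVs-SsrA fusion, so cleavage stabilises Bxb1 and speeds flipping of a recombination array, read by NGS. The value is the raw area under the fraction-flipped curve over 0-4 h after rhamnose induction (AUC4h), with ≥20 reads per time point. It is not background-subtracted; inactive controls average about 0.047.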
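Further: Bxb1 expression induced with 0.2% (w/v) L-rhamnose at OD600 near 0.5, cultures sampled hourly, flipped fraction per protease–substrate barcode pair counted by paired-end Illumina sequencing.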

Row | Variant | area with substrate ECLYFQS | area with substrate EPLYFQS | area with substrate EQLYFQS | area with substrate ERLYFQS | area with substrate ESLYFQS | area with substrate EVLYFQS | area with substrate EWLYFQS | area with substrate EYLYFQS | area with substrate EDLYFQS | area with substrate EELYFQS | area with substrate EFLYFQS | area with substrate EILYFQS | area with substrate EKLYFQS | area with substrate ELLYFQS | area with substrate EMLYFQS | area with substrate ETLYFQS | area with substrate EGLYFQS | area with substrate EHLYFQS
1 | MGESLFKGPRDYNPISSSICHLTNESFGHTTSLYGIGFGPFIITNKHLFRRNNGTLVVQSLHGVFKVKDTTTLQQHLVDGRDMIIIRMPKDFPPFPQKLKFREPQREERICLVTTNFQTKSMSSMVSDTSCTFPSGDGIFWKHWIQTKDGQCGSPLVSTRDGFIVGIHSASNFTNTNNYFTSVPKNFMELLTNQEAQQWVSGWRLNADSVLWGGHKVFMVKPEEPFQPVKEATQL [D27F] | 0.0931 | 0.124 | 0.0926 | 0.101 | 0.0924 | 0.0877 | 0.076 | 0.116 | – | – | – | – | – | – | – | – | – | –
2 | MGESLFKGPRDYNPISSSICHLTNESDGHHTSLYGIGFGPFIITNKHLFRRNNGTLVVQSLHGVFKVKDTTTLQQHLVDGRDMIIIRMPKDFPPFPQKLKFREPQREERICLVTTNFQTKSMSSMVSDTSCTFPSGDGIFWKHWIQTKDGQCGSPLVSTRDGFIVGIHSASNFTNTNNYFTSVPKNFMELLTNQEAQQWVSGWRLNADSVLWGGHKVFMVKPEEPFQPVKEATQL [T30H] | 0.103 | 0.139 | 0.0997 | 0.0929 | 0.1 | 0.1 | 0.0936 | – | 0.0964 | 0.149 | 0.0717 | 0.0844 | 0.1 | 0.0281 | 0.149 | 0.0976 | – | –
3 | MGESLFKGPRDYNPISSSICHLTNESDGHMTSLYGIGFGPFIITNKHLFRRNNGTLVVQSLHGVFKVKDTTTLQQHLVDGRDMIIIRMPKDFPPFPQKLKFREPQREERICLVTTNFQTKSMSSMVSDTSCTFPSGDGIFWKHWIQTKDGQCGSPLVSTRDGFIVGIHSASNFTNTNNYFTSVPKNFMELLTNQEAQQWVSGWRLNADSVLWGGHKVFMVKPEEPFQPVKEATQL [T30M] | 0.11 | 0.117 | 0.128 | 0.128 | 0.134 | 0.0923 | – | – | – | – | – | 0.0599 | – | 0.0933 | – | – | 0.0608 | 0.118
4 | MGESLFKGPRDYNPISSSICHLTNESDGHTTSAYGIGFGPFIITNKHLFRRNNGTLVVQSLHGVFKVKDTTTLQQHLVDGRDMIIIRMPKDFPPFPQKLKFREPQREERICLVTTNFQTKSMSSMVSDTSCTFPSGDGIFWKHWIQTKDGQCGSPLVSTRDGFIVGIHSASNFTNTNNYFTSVPKNFMELLTNQEAQQWVSGWRLNADSVLWGGHKVFMVKPEEPFQPVKEATQL [L33A] | 0.12 | 0.146 | 0.106 | 0.0965 | – | – | – | – | 0.136 | – | – | 0.0756 | 0.0949 | 0.078 | 0.11 | 0.109 | – | –
5 | MGESLFKGPRDYNPISSSICHLTNESDGHTTSLTGIGFGPFIITNKHLFRRNNGTLVVQSLHGVFKVKDTTTLQQHLVDGRDMIIIRMPKDFPPFPQKLKFREPQREERICLVTTNFQTKSMSSMVSDTSCTFPSGDGIFWKHWIQTKDGQCGSPLVSTRDGFIVGIHSASNFTNTNNYFTSVPKNFMELLTNQEAQQWVSGWRLNADSVLWGGHKVFMVKPEEPFQPVKEATQL [Y34T] | 0.0721 | – | 0.0744 | 0.0759 | 0.0752 | – | 0.0818 | 0.0801 | – | 0.102 | – | – | – | – | – | – | 0.0596 | –
6 | MGESLFKGPRDYNPISSSICHLTNESDGHTTSLYYIGFGPFIITNKHLFRRNNGTLVVQSLHGVFKVKDTTTLQQHLVDGRDMIIIRMPKDFPPFPQKLKFREPQREERICLVTTNFQTKSMSSMVSDTSCTFPSGDGIFWKHWIQTKDGQCGSPLVSTRDGFIVGIHSASNFTNTNNYFTSVPKNFMELLTNQEAQQWVSGWRLNADSVLWGGHKVFMVKPEEPFQPVKEATQL [G35Y] | 0.0446 | – | – | – | 0.0294 | 0.0364 | – | – | – | – | – | – | 0.0452 | 0.06 | – | – | – | –
7 | MGESLFKGPRDYNPISSSICHLTNESDGHTTSLYGIDFGPFIITNKHLFRRNNGTLVVQSLHGVFKVKDTTTLQQHLVDGRDMIIIRMPKDFPPFPQKLKFREPQREERICLVTTNFQTKSMSSMVSDTSCTFPSGDGIFWKHWIQTKDGQCGSPLVSTRDGFIVGIHSASNFTNTNNYFTSVPKNFMELLTNQEAQQWVSGWRLNADSVLWGGHKVFMVKPEEPFQPVKEATQL [G37D] | 0.0498 | 0.0337 | 0.0425 | 0.0368 | 0.0451 | 0.0297 | – | – | – | – | – | – | 0.0097 | – | – | 0.0399 | – | 0.0287
8 | MGESLFKGPRDYNPISSSICHLTNESDGHTTSLYGIGSGPFIITNKHLFRRNNGTLVVQSLHGVFKVKDTTTLQQHLVDGRDMIIIRMPKDFPPFPQKLKFREPQREERICLVTTNFQTKSMSSMVSDTSCTFPSGDGIFWKHWIQTKDGQCGSPLVSTRDGFIVGIHSASNFTNTNNYFTSVPKNFMELLTNQEAQQWVSGWRLNADSVLWGGHKVFMVKPEEPFQPVKEATQL [F38S] | 0.0823 | – | 0.107 | 0.0778 | 0.0843 | 0.0756 | 0.0791 | – | 0.0955 | 0.0843 | 0.0788 | 0.0766 | 0.0894 | 0.0796 | 0.088 | 0.0935 | 0.0877 | 0.0779
9 | MGESLFKGPRDYNPISSSICHLTNESDGHTTSLYGIGFGPMIITNKHLFRRNNGTLVVQSLHGVFKVKDTTTLQQHLVDGRDMIIIRMPKDFPPFPQKLKFREPQREERICLVTTNFQTKSMSSMVSDTSCTFPSGDGIFWKHWIQTKDGQCGSPLVSTRDGFIVGIHSASNFTNTNNYFTSVPKNFMELLTNQEAQQWVSGWRLNADSVLWGGHKVFMVKPEEPFQPVKEATQL [F41M] | 0.101 | – | 0.114 | 0.109 | 0.097 | 0.0891 | – | – | 0.136 | 0.112 | 0.0695 | 0.0991 | – | – | 0.0786 | – | 0.0963 | 0.118
